# From PMC6387754, “Dual mechanism of TRKB activation by anandamide through CB1 and TRPV1 receptors” (PeerJ, 2019)
# B1: vanilloid receptor TRPV1 (receptor)
# chain: not shown
# notes: TRPV1 (vanilloid receptor, VR1), endogenous in rat primary cortical cells; band at 100 kDa on the blot; also called VR1; source: endogenous, lysate of primary cortical cultures of E18 rat embryos (DIV8)
# Biological target: T1, TRKB (tropomyosin-related kinase B) (rat (endogenous in primary cortical …, UniProt Q63604 32-821))
# T1 construct: TRKB (tropomyosin-related kinase B), receptor of BDNF, endogenous in rat primary cortical cells; precipitated with anti-TRKB; source: endogenous, lysate of primary cortical cultures of E18 rat embryos (DIV8)
# Assay: co-IP; lysates of DIV8 rat cortical cultures (lysis buffer with 1% NP-40, 137 mM NaCl) incubated overnight at 4 °C with anti-CB1 or anti-TRKB (1 µg antibody / 500 µg total protein), Protein G-sepharose, washed 3 times; blot with anti-TRPV1; no-antibody negative control; TRPV1 precipitated with anti-TRPV1 as total
# Settings: partners not purified
# TRKB (tropomyosin-related kinase B), sequence (Q63604 32-821): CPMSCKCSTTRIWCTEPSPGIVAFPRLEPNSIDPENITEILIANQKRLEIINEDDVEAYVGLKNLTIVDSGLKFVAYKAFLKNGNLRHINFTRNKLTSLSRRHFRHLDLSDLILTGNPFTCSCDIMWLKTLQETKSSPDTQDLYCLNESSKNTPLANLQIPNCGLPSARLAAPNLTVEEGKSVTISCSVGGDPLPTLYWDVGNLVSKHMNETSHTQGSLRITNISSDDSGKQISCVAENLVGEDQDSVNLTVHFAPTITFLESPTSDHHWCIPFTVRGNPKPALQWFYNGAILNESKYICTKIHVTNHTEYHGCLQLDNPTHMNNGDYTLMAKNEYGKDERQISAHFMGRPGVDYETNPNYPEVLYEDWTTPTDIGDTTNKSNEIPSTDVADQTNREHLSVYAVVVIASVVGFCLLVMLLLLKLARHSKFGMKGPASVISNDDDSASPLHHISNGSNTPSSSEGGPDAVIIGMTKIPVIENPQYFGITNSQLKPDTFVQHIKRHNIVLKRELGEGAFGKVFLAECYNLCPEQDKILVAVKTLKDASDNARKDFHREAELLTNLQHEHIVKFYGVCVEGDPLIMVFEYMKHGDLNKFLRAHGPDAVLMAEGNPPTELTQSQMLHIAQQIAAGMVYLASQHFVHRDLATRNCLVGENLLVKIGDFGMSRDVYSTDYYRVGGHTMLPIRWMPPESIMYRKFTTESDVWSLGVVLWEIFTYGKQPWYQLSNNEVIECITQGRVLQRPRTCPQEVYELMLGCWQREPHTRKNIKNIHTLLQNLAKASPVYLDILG
binder,measurement,value
B1,ratio of TRKB-coupled TRPV1 compared to total TRPV1,13.2%
